Results on 57 sequences are retold here after the supplement of paper PMC11417369.

Some of the results follow.

This assay relates to PfAP2-HC AP2 domain (GST-tagged). Put plainly: gcPBM binding intensity (ln(normalized median fluorescence intensity)); higher = stronger DNA binding. In short, it runs like this:
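DNA-binding domains from P. falciparum, fused to GST and produced in E. coli, were put on an Agilent 4 × 180k double-stranded probe array for 1 h in 1× PBS holding 1% milk, 0.2 mg/ml BSA, 0.5% salmon testes DNA and 0.03% Triton X-100. Probes were primer-extended, 36 bp long and drawn from intergenic genomic regions, with negative controls included. After Alexa488 anti-GST antibody detection and a 488 nm scan, binding intensity was set as the highest Masliner-normalised natural-log median intensity across replicate spots of either probe orientation.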
Regarding “AAAAAAAAAAAAAAAACACACATATATATATATATA [CACACA_site2436]”, the “gcPBM binding intensity (ln)” value is 10.4.

“TTTAAAACCTTACATACACACAAATATGTAAATATA [CACACA_site6464]”: the “gcPBM binding intensity (ln)” value was 9.67.

For “TTCATATAACCTTATAGTACATAATTAAAAATATAA [XGTACX_site6328]”, the “gcPBM binding intensity (ln)” value is 9.32.

For the sequence “CACGCATATATACATACATGCATATATACATCCATG [TGCATGCA_site667]”, the “gcPBM binding intensity (ln)” value worked out at 9.7.

On to “AAAAAAAAAAAAAAAACACACATATAGGTATAAATA [CACACA_site7528]”, for which the “gcPBM binding intensity (ln)” value is 9.72.

With “AAAAAAAAAAAATAGACACACATATTATATATATAT [CACACA_site1419]”, the “gcPBM binding intensity (ln)” value was 10.2.

For “TATTATTCTATACATTGTACATATTTTATAGTATGT [XGTACX_site73]”, the “gcPBM binding intensity (ln)” value is 9.79.

For the sequence “TTTTCCTTATATTATGCATGCAGGGTTTGACATTAT [TGCATGCA_site826]”, the “gcPBM binding intensity (ln)” value was found to be 9.8.

Consider “ATGTGTTGGGAAAAGGCATGCACTTTTTTTTTTTTT [TGCATGCA_site707]”, for which the “gcPBM binding intensity (ln)” value worked out at 9.62.

For “TGATAACCTCACAAATGTACGTACGGGGCTAGCATT [XGTACX_site4157]”, the “gcPBM binding intensity (ln)” value was 9.82.

“ATATCTATAATAAATACACACATTTATATAGATAAA [CACACA_site7518]”: the “gcPBM binding intensity (ln)” value turned out to be 9.62.

For “AACAGCATTATTTCTTATTTTTTTTTTGATATATTT [GTGCAC_negctrl_site114]”, the “gcPBM binding intensity (ln)” value turned out to be 9.63.

With “AAACTTGACAGACACACACACACATATATAAAAAAA [CACACA_site757]”, the “gcPBM binding intensity (ln)” value was found to be 10.4.

For “GTTATATTATTCATACGTACCTATATTTCTATTAAC [XGTACX_site3447]”, the “gcPBM binding intensity (ln)” value was 9.83.

For the sequence “TGTGTGTGCTTATTTTGTACATATTAGGTAAATATT [XGTACX_site6329]”, the “gcPBM binding intensity (ln)” value is 9.99.

For “TTTATGGAATAATCACGTACACACAAGAAAAAAAAA [XGTACX_site985]”, the “gcPBM binding intensity (ln)” value is 10.2.

On to “TTTTTATCTAATCTAATATTATATTATACATATAAT [XGTACX_negctrl_site275]”, for which the “gcPBM binding intensity (ln)” value was 9.61.

With “AACTCATAAAATAATGGTACACAAAAAAAATAAATA [XGTACX_site7648]”, the “gcPBM binding intensity (ln)” value is 10.1.

“TTTTTTTTTTTCTTTTGTACGTATAAAATTATATAA [XGTACX_site2453]”: the “gcPBM binding intensity (ln)” value was determined as 9.58.

As for “CAAGGAACCAGACACACACACATAAATGTATTTATA [CACACA_site6491]”, the “gcPBM binding intensity (ln)” value was 10.6.

As to “TTAGGCAAGGCGGGGGGTACGTTTTTATATAATTAT [XGTACX_site8029]”, the “gcPBM binding intensity (ln)” value stood at 10.2.

For “TTAGATTTATAAGTGTGTACGTAAAATACTTAATAA [XGTACX_site8246]”, the “gcPBM binding intensity (ln)” value was 9.59.

For “TCATATAAATACACGTGTACATATATATATTACAGT [XGTACX_site1954]”, the “gcPBM binding intensity (ln)” value worked out at 9.91.

As for “AAAAAATATATATGCACACACAAAAAAACAAATTAA [CACACA_site1278]”, the “gcPBM binding intensity (ln)” value is 10.1.

Turning to AGTTTGCATATGGAAGTGCATTACCTTGAACATCAT, the “gcPBM binding intensity (ln)” value was found to be 9.57.

In the case of “AATATAAAAAATAGTTGTACTATATTTAAATATGAC [XGTACX_site2937]”, the “gcPBM binding intensity (ln)” value worked out at 9.76.

With “ACTAAACGAATAAATTGTACAAAGAAATATATTCAT [XGTACX_site6766]”, the “gcPBM binding intensity (ln)” value was 9.88.

As for “ACTACGTGGATTAGTTCAAGGGAACACGTCCTATAC [CACACA_negctrl_site1427]”, the “gcPBM binding intensity (ln)” value amounted to 9.54.

“CAACAAAAGTTATTTACACACAAAAGGCAAGGAAAT [CACACA_site7013]”: the “gcPBM binding intensity (ln)” value is 9.95.

“AAAGGAAATAAAAACGCACACAGAAATAATATCTAT [CACACA_site457]”: the “gcPBM binding intensity (ln)” value was found to be 10.2.

Take “ATATTTCATTTTTGTACACACAACGTTGGAGGGTTT [CACACA_site3043]”: the “gcPBM binding intensity (ln)” value stood at 9.81.

“TAAAAAATTACATATTGTACAGGCAAAATTACACAT [XGTACX_site1152]”: the “gcPBM binding intensity (ln)” value was found to be 9.71.

For the sequence “CCCACTAAAAAACACACACACACACCCATATATATA [CACACA_site6140]”, the “gcPBM binding intensity (ln)” value stood at 11.

In the case of “ATATGTATTAAGTGTACACATATAATCTATCTTGTT [CACACA_site5329]”, the “gcPBM binding intensity (ln)” value stood at 9.8.

Take “TTTTTTTTATATAGTAGTACTAATTAGAATTTTTAT [XGTACX_site7476]”: the “gcPBM binding intensity (ln)” value was found to be 9.48.

In the case of “TATATGTTTTATAGTACACACATAAATGGACATACT [CACACA_site2191]”, the “gcPBM binding intensity (ln)” value worked out at 9.72.

With “TGAATTTAGATATATACACACAAAAGTATATACAAT [CACACA_site2804]”, the “gcPBM binding intensity (ln)” value turned out to be 9.89.

Turning to “GTTGGTAGGCGGTACGGTACACGTAAAGTTTTTCTT [XGTACX_site7706]”, the “gcPBM binding intensity (ln)” value was 9.77.

As to “ATAAATGACAAATTAACACACATATATTATATATAT [CACACA_site3899]”, the “gcPBM binding intensity (ln)” value amounted to 9.84.

In the case of “ACCATATAAATAAACACACACACACGGATATAAATA [CACACA_site7157]”, the “gcPBM binding intensity (ln)” value was found to be 10.6.

With “TACATACATACATACACACATACATATGTATATATA [CACACA_site2480]”, the “gcPBM binding intensity (ln)” value amounted to 9.84.

Consider “TAATGCCATAATACGTGTACTTAATATATTAGAACA [XGTACX_site5809]”, for which the “gcPBM binding intensity (ln)” value was found to be 9.58.

For “CTCAAATGTTATTGTAGTACCTAAAAAATATATTCT [XGTACX_site1970]”, the “gcPBM binding intensity (ln)” value was found to be 9.5.

“TATAATGCTCTTCTTTGTACATATTATGATTATATT [XGTACX_site2332]”: the “gcPBM binding intensity (ln)” value worked out at 9.75.

For “AAAGGAAAATGTGTAAAAAGAAATGCTAGGTATATA [GTGCAC_negctrl_site699]”, the “gcPBM binding intensity (ln)” value was 9.89.

For the sequence “ATATATATATAATATAGTACGTATAATATATGAATC [XGTACX_site4385]”, the “gcPBM binding intensity (ln)” value turned out to be 9.99.

In the case of TTTTTGTTATATAAAGTGCAGTGACAAGCAGTTTAA, the “gcPBM binding intensity (ln)” value was found to be 9.56.

In the case of “AGTGGTGTTAAATGTTGTACGATTTTGTGTTATTCG [XGTACX_site178]”, the “gcPBM binding intensity (ln)” value was 9.86.

For “ATTTAAGCATTATTTTGTACGAAAATAAAAAAATGA [XGTACX_site6958]”, the “gcPBM binding intensity (ln)” value is 9.57.

As to “ATATAAAAAAATAAAACACACACATATATATTATAT [CACACA_site8909]”, the “gcPBM binding intensity (ln)” value was 10.8.

As for “TATGTAACAAAAAAAAGTACACATATATATAGTGTA [XGTACX_site7772]”, the “gcPBM binding intensity (ln)” value worked out at 9.78.

Take “AAGATAATCACAAAATGTACAGGAAATATGACAACC [XGTACX_site3607]”: the “gcPBM binding intensity (ln)” value was 9.88.

As to ACTGCGTTTTTACACGCGCACTGCAATGAACAATAT, the “gcPBM binding intensity (ln)” value came to 9.54.

Regarding “AATGGTATAAACAATACACACATAATATATATATTG [CACACA_site4997]”, the “gcPBM binding intensity (ln)” value was determined as 9.88.

With “AAGAAAAAGGAACGGAAAAACAAACAAGGGGCCCAA [TGCATGCA_negctrl_site4]”, the “gcPBM binding intensity (ln)” value worked out at 9.79.

Consider “TTTTCTAAATTAATAATACACACTTGCTAAAATCAT [CACACA_site3207]”, for which the “gcPBM binding intensity (ln)” value was found to be 9.4.

“AGTCTGAATAAAATTACACACATATACAGATATATA [CACACA_site5054]”: the “gcPBM binding intensity (ln)” value stood at 9.8.
